In publication PMC4336329 (PLoS ONE, 2015):
Out of some 310,000 compounds screened, about 2,200 (0.71%) showed an effect of 50% or more. The effect is printed as a negative number. The list shows a part of the results.

These compounds were tested against human ether-à-go-go-related gene (hERG) potassium channel (human, UniProt Q12809) (assay: primary screen, population patch clamp on CHO cells stably expressing hERG).
Sequence of human ether-à-go-go-related gene (hERG) potassium channel (Q12809 whole entry, looked up): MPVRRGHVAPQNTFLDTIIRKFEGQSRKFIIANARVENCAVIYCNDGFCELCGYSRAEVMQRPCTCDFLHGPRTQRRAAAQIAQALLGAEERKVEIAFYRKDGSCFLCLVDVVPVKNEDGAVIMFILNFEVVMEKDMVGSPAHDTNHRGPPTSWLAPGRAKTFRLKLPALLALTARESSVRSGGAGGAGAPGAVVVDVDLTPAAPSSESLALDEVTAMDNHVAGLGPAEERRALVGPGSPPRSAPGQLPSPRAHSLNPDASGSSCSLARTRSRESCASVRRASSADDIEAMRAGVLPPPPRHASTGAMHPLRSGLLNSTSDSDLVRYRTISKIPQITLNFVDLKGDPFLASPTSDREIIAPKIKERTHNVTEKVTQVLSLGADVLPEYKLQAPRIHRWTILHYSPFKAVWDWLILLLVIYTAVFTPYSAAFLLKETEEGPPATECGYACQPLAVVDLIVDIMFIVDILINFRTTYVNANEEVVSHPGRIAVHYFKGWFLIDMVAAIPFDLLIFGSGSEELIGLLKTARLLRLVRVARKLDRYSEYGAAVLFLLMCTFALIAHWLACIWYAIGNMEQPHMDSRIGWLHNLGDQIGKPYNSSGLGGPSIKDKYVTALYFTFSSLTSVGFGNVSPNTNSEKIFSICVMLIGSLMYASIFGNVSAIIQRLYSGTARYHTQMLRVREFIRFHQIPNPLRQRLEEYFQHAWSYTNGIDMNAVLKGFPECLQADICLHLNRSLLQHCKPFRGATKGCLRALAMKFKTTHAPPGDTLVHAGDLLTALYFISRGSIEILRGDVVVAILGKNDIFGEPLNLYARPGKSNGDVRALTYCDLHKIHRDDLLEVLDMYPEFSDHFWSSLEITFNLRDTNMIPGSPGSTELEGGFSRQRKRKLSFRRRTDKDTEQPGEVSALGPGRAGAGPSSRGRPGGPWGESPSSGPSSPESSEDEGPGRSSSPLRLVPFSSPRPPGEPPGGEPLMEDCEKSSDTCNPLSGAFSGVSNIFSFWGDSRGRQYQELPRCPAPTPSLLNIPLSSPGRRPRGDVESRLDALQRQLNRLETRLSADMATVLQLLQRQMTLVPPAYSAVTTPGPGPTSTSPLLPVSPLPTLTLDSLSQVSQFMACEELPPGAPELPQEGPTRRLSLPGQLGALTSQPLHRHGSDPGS

SMILES	hERG current change (%, negative = inhibition) at 1uM [%]
CC(=O)Nc1ccc2cc3ccc(NC(C)=O)cc3nc2c1	22.2
COc1ccc(C(CNC(=O)COc2ccc(-c3ccccc3)cc2)N2CCOCC2)cc1 (stereo not shown)	1.07
O=C1NC2CCc3nc4ccccc4c(=O)n3C2=Nc2ccccc21 (stereo not shown)	-6.24
O=C(CCS(=O)(=O)c1ccccc1)Nc1ccc(Cl)cn1	11.5
Cc1cc(C)cc(Oc2ccc(C(F)(F)F)cc2C#N)c1	11.2
CCOC(=O)C1(CCCc2ccccc2)CCN(Cc2nccn2CC)CC1	-45.8
Cc1cc(Cn2nc(C(=O)NCc3cccc(Br)c3)cc2-c2ccccc2)on1	8.88
O=C(c1cccc2ccccc12)N1CCC(N2CCN(c3ccccc3)CC2)CC1	-2.01
CCOP(=O)(OCC)/C(=C/N1CCCCC1)NC(=O)c1ccccc1	13.7
O=C(CN1CCc2ccccc21)NC(c1ccccc1)c1ccccc1	-1.48
N#CC(C(=O)c1ccco1)c1ccccn1 (stereo not shown)	12.4
O=S(=O)(N/N=C/c1ccc(OC2CSC2)cc1)c1ccccc1	3.45
Cn1c(CSCc2ccccc2)n[nH]c1=S	9.6
COc1ccc(N2CCN(S(=O)(=O)c3ccc(-c4cnc(C5CC5)o4)cc3)CC2)cc1	17.8
COC(=O)C1CN(C(=O)COc2cc(C)c(Cl)c(C)c2)c2ccccc2O1 (stereo not shown)	17.5
C/C(=N\NC(=O)c1ccc(C)cc1C)c1ccc(-n2ccnc2)cc1	-4.72
O=C1Nc2ccccc2Nc2ncccc21	5.2
Brc1ccc(-c2nnc(-c3ccccc3Br)o2)cc1	10.3
CNC(=S)N1CCN(c2nc(-c3cccc(OC)c3)cs2)CC1	6.81
CCN(CC)S(=O)(=O)c1ccc2oc(C(=O)Nc3ccc(OC)cc3OC)c(C)c2c1	10

SMILES	hERG current change (%, negative = inhibition) at 1uM [%]
CC(C)C[C@H](NC(=O)C1CCN(S(=O)(=O)c2ccccc2)CC1)C(=O)NCc1ccccn1	8.15
Cn1nnnc1NCc1c(F)cccc1Cl	10.1
CCOC(=O)C1=C(CC)OC(N)=C(C#N)C1c1ccsc1 (stereo not shown)	12.1
Cc1ccc(C)c(NC(=O)c2cc[n+](C)cc2)c1.[I-]	10.9
Clc1c(Cl)c(Cl)c2n[nH]nc2c1Cl	18
CC(=O)N(c1ccc(Cl)cc1)c1c[nH]c2ccccc12	0.849
O=C(NCC(=O)N1CCN(C(c2ccccc2)c2ccccc2)CC1)c1ccc(Br)o1	10.6
CC(C)CCc1c(O)nc(SCC(=O)N2CCCCCC2)[nH]c1=O	10.6
COc1ccc(OCc2cc(C(=O)NC(C)Cc3cccnc3)no2)c(Cl)c1 (stereo not shown)	6.07
CN(CCOc1ccc(Cl)cc1)C(=O)c1ccc(S(=O)(=O)N2CCOCC2)cc1	-28.7
CCC(OC(=O)c1ccco1)C(=O)NCc1ccc(OC)cc1 (stereo not shown)	9.51
CCOC(=O)CNC(=O)c1nn(-c2cccc(OC)c2)c(=O)c2ccccc12	1.39
CC(=O)c1ccc(NC2OC(C)C(O)C(O)C2O)cc1 (stereo not shown)	9.5
C=CCc1cccc(/C=N/NC(=O)C(=O)Nc2ccc(C)cc2)c1O	17.3
CC1(C)Cc2cccc(OCC(=O)N3CCN(c4cccc(Cl)c4)CC3)c2O1	13.6
Cc1nc(NC(=O)CN2CCCCC2)sc1C(=O)N(C)C	0.291
Cc1ccc(N(C(=O)CNC(=O)c2ccco2)C(C(=O)NCC2CCCO2)c2ccccc2)cc1C (stereo not shown)	3.11
CCOC(=O)N1CCC(NC(=O)C2CCN(S(=O)(=O)c3cnc[nH]3)CC2)CC1	11
Cc1ccccc1OCCN1C(=O)c2ccccc2C1=O	7.18
COC(=O)C(NC(=O)c1ccco1)(Nc1nc(C2CC2)cs1)C(F)(F)F (stereo not shown)	14.1

SMILES	hERG current change (%, negative = inhibition) at 1uM [%]
NC(=O)C1CCN(C(=O)c2ccc3c(c2)S(=O)(=O)c2ccccc2C3=O)CC1	6.98
Cc1ccc(OCCNC(=O)Cc2ccc(F)cc2)cc1	10.8
O=C(Nc1ccccc1C(=O)N1CCOCC1)c1ccco1	-2.65
CCCN(CCC)CCCNC(=O)CN1C(=O)CSc2ccc(S(=O)(=O)N3CCOCC3)cc21	10.4
O=C(Nc1ccccc1-c1ccccc1)c1ccco1	12.3
CC(Oc1ccc(F)cc1)C(=O)Nc1cccc(-c2nn[nH]n2)c1 (stereo not shown)	10.5
COc1ccc(Cn2c(=O)oc3ccc(C)cc32)cc1	3.8
CC1CCN(CCCNC(=O)c2cc3c(Cl)nc4ccccc4c3s2)CC1	-31.9
O=C(O)C(=O)O.O=C(c1ccc(F)cc1)N1CCN(C2CC3CCC2C3)CC1 (stereo not shown)	8.97
Cc1ccccc1Cn1cnc2c(NS(C)(=O)=O)c(C)c(C)cc21	13.2
C[C@@H](C(=O)Nc1ccc2ccccc2c1)[C@H]1C[C@]1(C)[C@H](NS(=O)(=O)c1ccccc1)c1ccccc1	6.27
O=C(CN1CCN(c2ccccc2F)CC1)NCc1ccc(Cl)cc1	4.4
CCOC(=O)C1=C(COC(=O)c2sccc2C)NC(=O)NC1C (stereo not shown)	5.76
CCOC(=O)Cn1c2ccc(F)cc2c2nc(C)sc21	1.71
O=C(OCC#CCSc1nnc(-c2ccc(Br)cc2)o1)c1ccco1	14.4
CCCOC(=O)c1c(NC(=O)CCC(=O)O)sc2c1CCCCC2	4.76
CCCCC[C@H]1CN(Cc2ccccc2)C(=O)[C@@H]1CC(=O)NCc1ccc(OC)cc1	-19.4
Cc1ccc(NS(=O)(=O)c2cc(C(=O)Nc3cccnc3)ccc2C)cc1	8.01
